{"source": "the RNAGym collection of RNA variant scans (doi:10.7554/elife.90254)", "parents": {"B1": {"name": "LINE1-mini (parent)", "chain": "GGCAGAGCUCAACACAGCGUGGCAAAGUGGCUGUGGCUAGACUGCC"}}, "note": "Read counts are not given, so values of variants with three or more changes are uncertain.", "data": [{"variants_of": "B1", "experiment": "self-cleavage, relative activity (ratio to wild type); higher = more cleavage; in vitro, sequencing; the parent is a self-cleaving ribozyme", "values": [{"variant": "GGCAGAGCCCAAGACAGCGUGGCAAAGUGGCUGUGGCUAGAGUGAC", "self-cleavage": 0.01}, {"variant": "GGCAGAGCCCAACACAGCGUGGCAAAGUGGCUGUGGCUAGUCUGUC", "self-cleavage": 0.08}, {"variant": "GGCAGAGCCCAACACAGCGUGGCAAAGUGGCUGUGGCUUGAGUGCC", "self-cleavage": 0.02}, {"variant": "GGCAGAGCCCAACACAGAGUGGCAAAGCGAGAGUGGCUAGACUGCC", "self-cleavage": 0.02}, {"variant": "GGCAGAGCCCAACACAACGUGGCAAUGUGGAUAUGGCAAGAUUGCC", "self-cleavage": 0}, {"variant": "GGCAGAGCCCAACACUGCGCGGCAAAUUGGCUGUGGUUAGACAGCC", "self-cleavage": 0.01}, {"variant": "GGCAGAGCCCAACACAACGUGGCAAAGUGGCUGUGGCUAGAUUGCC", "self-cleavage": 0.06}, {"variant": "GGCAGAGCCCAACACAGCGUGGGAAAGUGGCUGUGGCUAGACUGUC", "self-cleavage": 0.03}, {"variant": "GGCAGAGCCCAACAUAGCGUUGCAAAGUGGCUGUGGCUAGAUUGCA", "self-cleavage": 0}, {"variant": "GGCAGAGCCCAACACAGGGUGACAAAGUGGCUGUGGCUAGACUGCC", "self-cleavage": 0.03}, {"variant": "GGCAGAGCCCAACACAGCGUGGCAAAGUGGCUGUGGUUAGCCUGCC", "self-cleavage": 0.03}, {"variant": "GGCAGAGCCCAAUACAGCGUGGCAAAGUGGCUGUGGCUAGGCUGCC", "self-cleavage": 0.02}, {"variant": "GGCAGAGCCCAACACAGCGUGGGAAAGAAGGUGUGGCUAGACUGCC", "self-cleavage": 0.02}, {"variant": "GGCAGAGCCUCACACAGCGUGGCAAAGUGGCUGUGGCUAGACUGCC", "self-cleavage": 0.04}, {"variant": "GGCAGAGCCCAACACAGCGUGGGCAAGUGGCUGUGGCUACACUGCC", "self-cleavage": 0.01}, {"variant": "GGCAGAGCCCAACACAGCGUGGUAAAGUGGCUGUGGCUGGACUGCC", "self-cleavage": 0.02}, {"variant": "GGCAGAGCCCAACACGUCGUGGCAAAGUGGCUGUGGCUCGACUGCC", "self-cleavage": 0.02}, {"variant": "GGCAGAGCCCAAGACAGCGUGGCAAAGUGCCUGUGGCUAGACUGCC", "self-cleavage": 0.03}, {"variant": "GGCAGAGCCCAACACAGCGUGGCAAAGUGGAUGUGGUUAGACUGCC", "self-cleavage": 0.03}, {"variant": "GGCAGAGCCCAACUCAGCGUGGCAAGGUGGCUGUGGCUAGACUGCA", "self-cleavage": 0.02}, {"variant": "GGCAGAGCCCAACACAGCGUGGCAACGUGUCUGUGGCUAGACUGCC", "self-cleavage": 0.02}, {"variant": "GGCAGAGCCCAACACAGCGUGGGAAAGUGGUUGUGGCUAAACUUCC", "self-cleavage": 0.01}, {"variant": "GGCAGAGCCCAACACAGUGUGCCAAAGUGGCUGUGGCUAGACUGCC", "self-cleavage": 0.03}, {"variant": "GGCAGAGCCCAACACAGUGUGGAAAAGGGGCUGUGCCUAGACUGCC", "self-cleavage": 0.02}, {"variant": "GGCAGAGCCCAACACAGUGUGGCAAAGCUGCUGUGGCUAGACUGCC", "self-cleavage": 0.03}, {"variant": "GGCAGAGCCCAACACAGCGUGGCAUAGGGGCUGUGGCUAUACUGCC", "self-cleavage": 0.04}, {"variant": "GGCAGAGCCGAACACAGCGUGGCAAAGUUGCUGUGGCUAGACUGCC", "self-cleavage": 0}, {"variant": "GGCAGAGCCCAACACAGCGUGGAAAAGUGGCUGAGGCUAGACUGCC", "self-cleavage": 0.03}, {"variant": "GGCAGAGCCCAAAACAGCUGGGCAAAGUGGCUGUGGCUAGACUGCC", "self-cleavage": 0.03}, {"variant": "GGCAGAGCCCAAGACAGCUUGGCAAAGUGGCUGUGGCUAGACUGCC", "self-cleavage": 0.03}, {"variant": "GGCAGAGCCCAACACAGCGUGGCAAAGUGGAUGUGGCUAGACUGGU", "self-cleavage": 0.03}, {"variant": "GGCAGAGCCCAACACAGCGUGGAAAAGGGGCAGUGGCUAGACUGCC", "self-cleavage": 0.01}, {"variant": "GGCAGAGCCCAAAACAGGGUGGCAAAGUGGCUGUGGCUAGACUACC", "self-cleavage": 0.03}, {"variant": "GGCAGAGCCCAACACUAUGUGGCAAAGUGGCUGUGGCUAGACUGCC", "self-cleavage": 0}, {"variant": "GGCAGAGCCCAACACAGCGUGGCAAGGUGGCUGUGGCUAGACUCCC", "self-cleavage": 0}, {"variant": "GGCAGAGCCCAACACAGCGUGGCAAGGUGGCUCUGGCUAGACUGCC", "self-cleavage": 0.02}, {"variant": "GGCAGAGCCCAAUCCAGCGUGACAAAGUGGCGGUGGCUAGUCUGCC", "self-cleavage": 0}, {"variant": "GGCAGAGCCCAAAACAGAGUGGCAAAGUGGCUGUGGCUAGACAGCC", "self-cleavage": 0.01}, {"variant": "GGCAGAGCCCAACAAAGUGUUGCAAAGUGGCCGUGGCUCGACUGCC", "self-cleavage": 0.03}, {"variant": "GGCAGAGCCCAACAAAGCGUGGCAAAAUGGCUGUGGCUAGACUGCC", "self-cleavage": 0.04}, {"variant": "GGCAGAGCCCAACUCAGCCUGACAAAGUGGAUGUGGCUAGACUGAC", "self-cleavage": 0.01}, {"variant": "GGCAGAGCCCAACACAGCGUGGCAACGUGCCUGUGGCUUGACUGCC", "self-cleavage": 0.01}, {"variant": "GGCAGAGCCCAACUCAGCGUGGGAAAGUGGCUGUGGCUAGACUGCC", "self-cleavage": 0.01}, {"variant": "GGCAGAGCCCAACUCAGCGUAGCAAAGUGGCUGUGGCUAGACCGCC", "self-cleavage": 0.02}, {"variant": "GGCAGAGCCCAACACAACGUGGCAAAGUGGCUGUGGUUAGACUGCC", "self-cleavage": 0.02}, {"variant": "GGCAGAGCCGAAAAAAGUGUGGCAAAGUGGCUGUGGCUAGACUGCC", "self-cleavage": 0.03}, {"variant": "GGCAGAGCCCAACACCGCGAGGCAAAGUGGCUGUGGCUAGACUGCC", "self-cleavage": 0.05}, {"variant": "GGCAGAGCCCAACACAGCGUGGCCAAGUGGCUGUGGCUAGCCUGCC", "self-cleavage": 0.02}, {"variant": "GGCAGAGCCAAACACAGCGUGGCAAAAUGGCUGUGGCUAUACUGCC", "self-cleavage": 0.02}, {"variant": "GGCAGAGCCCAACAAAGCGUGGGAAUGUGGCUGUGGCUAGAAUGCC", "self-cleavage": 0.02}, {"variant": "GGCAGAGCCCAACAUAGCGUGGCAAAGUGGCGGUGGCUAGACUGCC", "self-cleavage": 0.04}, {"variant": "GGCAGAGCCCAACACUGCGUGGCAAAGUGACUGUGGCUAGACUGCC", "self-cleavage": 0.04}, {"variant": "GGCAGAGCCCAAGGCAGCGUGGCAAAGAGGCUAUGGCUAGACUGCC", "self-cleavage": 0.03}, {"variant": "GGCAGAGCCUAACACAGCGUGGCAAAAUGGGUGUGGCUAGACUGCC", "self-cleavage": 0}, {"variant": "GGCAGAGCCCAACACUGCGUGGCAAAGUGUCUGUGGCUAGUCUGCC", "self-cleavage": 0.09}, {"variant": "GGCAGAGCCCAACACAACGUGGCACAGUGGCUGUGCCUAGACUUCC", "self-cleavage": 0}]}]}
